According to PubChem BioAssay (Tox21):
Several values for one entry are separate records, joined by “and”; a condition that tells them apart may be missing. Identical values can stand only once. Inconclusive results, whose numbers are uncertain, are shown with a selection of clear calls. For some assays here: Where the call is inconclusive, the potency comes from a doubtful curve fit. A structure can be active in one record and inactive in another. Activity calls are given as the source filed them. Unless noted, calls follow the shape of the dose curve; as a rule, active = well fitted curve in the direction sought with a large enough effect in the repeat runs; inconclusive = weak or mixed curves; inactive = no such curve, though single readings can be large; an effect the other way counts as inactive or inconclusive.

Tests used:
[1] = molecular target: Thyrotropin receptor (Homo sapiens) (UniProt P16473); assay: qHTS assay to identify small molecule agonists of the thyroid stimulating hormone receptor (TSHR) signaling pathway (AID 1224843; calls by dose curve; also: nearly all actives have a fitted effect of over 45% in size; as to activation: % is scaled to controls: 0 for no effect and ±100 for the full control effect); settings: TSHR-HEK293 cells, cAMP HTRF, agonist mode, 30 min
Method in brief: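 Agonist-mode screen: TSHR HEK293 cells received test chemicals for half an hour at room temperature, then HTRF cAMP detection reagents for one hour prior to fluorescence measurement. Each chemical ran as a 15-concentration series, triplicated.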

[2] = qHTS assay to identify small molecule agonists of the estrogen related receptor signaling pathway with the pleiotropic PPARgamma coactivator (PGC) from Tox21 10K library (AID 1224842); also: nearly all actives have a fitted effect of over 15% in size
Method in brief: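 PGC/ERR reporter cell line, 2,000 cells per well, incubated 6 h at 37 C before 23 nL compound in DMSO was added. After 18 h at 37 C, One-Glo luminescence read following 30 min at room temperature.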

[3] = qHTS assay to identify small molecule agonists of H2AX - cell viability counter screen (AID 1224847; calls by dose curve; also: nearly all actives have a fitted effect of over 30% in size)
Method in brief: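 CHO-K1 wt, 1000 cells/well, o/n 37C; cpds 15 conc, 3 h 37C, 0.76% DMSO; CellTiter-Glo, 30 min RT, luminescence.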

[4] = qHTS assay to identify small molecule agonists of H2AX (AID 1224845; active = well fitted activation curve with a large enough effect in the signal ratio in the repeat runs, not every such curve was filed as active; inconclusive = weak or mixed curves; the % refers to the signal ratio); settings: CHO-K1 phospho-H2AX Ser139 HTRF, 3 h; activation (H2AX phosphorylation): at 154 µM (top of the series)
Method in brief: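 Wild-type CHO-K1 cells, plated overnight, exposed 3hr at 37C to 15 concentrations (0.76% DMSO final). Lysed, then HTRF anti-pH2AX (S139) cryptate and anti-H2AX-d2 antibodies, 24 hr room temperature; 665/620 nm emission read.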

[5] = qHTS RealTime-Glo MT Cell Viability Assay in HEK293 cells - 32 hour (AID 1224868); also: nearly all actives have a fitted effect of over 50% in size
Method in brief: (§1)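 Nonlytic real-time viability readout: viable cells convert prosubstrate to NanoLuc substrate, giving luminescence proportional to live cell number. HEK293, 600 cells/well, compound added after 5 h, continuous culture at 37 C.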

[6] = qHTS RealTime-Glo MT Cell Viability Assay in HEK293 cells - 40 hour (AID 1224874); settings: RealTime-Glo luminescence; max response: stronger effect = lower value; also: nearly all actives have a fitted effect of over 50% in size
Method in brief: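 HEK293 + NanoLuc + prosubstrate, 600 cells/well; 5 h, 37 C/5% CO2; compound 23 nL in DMSO by pintool; 37 C; luminescence read at 0, 8, 16, 24, 32 and 40 h time points.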

[7] = qHTS assay to identify small molecule antagonists of the estrogen related receptor signaling pathway with the pleiotropic PPARgamma coactivator (PGC) from Tox21 10K library (AID 1224841; call rule not given here; also: actives are mostly falling curves and most rising ones were filed inactive; nearly all actives have a fitted effect of over 50% in size)
Method in brief: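 Test chemicals dissolved in DMSO were applied to pre-incubated (6 h) PGC/ERR cells at 2,000 cells/well for an 18 h, 37 C treatment; reporter luminescence was then read using One-Glo.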

[8] = qHTS assay to identify small molecule agonists of the hypoxia (HIF-1) signaling pathway (AID 1224846; active = well fitted activation curve with a large enough effect in the signal ratio in the repeat runs, not every such curve was filed as active; inconclusive = weak or mixed curves; the % refers to the signal ratio); settings: HRE-bla ME-180 cells, beta-lactamase ratio, 17 h; activation: at 76.8 µM (top of the series) unless noted
Method in brief: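 Reporter induction in HRE-bla ME-180 cells is taken as agonism: cells sit 5 hrs after plating, receive compounds or DMSO only, incubate 17 hrs at 37C under 5% CO2, and are loaded with CCF4-AM for beta-lactamase FRET measurement.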

[9] = qHTS assay to identify small molecule antagonists of the estrogen related receptor (ERR) signaling pathway from Tox21 library (AID 1224848); also: nearly all actives have a fitted effect of over 50% in size
Method in brief: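 Quantitative high-throughput format: ERR reporter cells (2,000/well) pre-incubated 6 h, treated 18 h at 37 C with compounds in DMSO alongside positive and negative controls, then read by ONE-Glo luminescence.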

[10] = qHTS RealTime-Glo MT Cell Viability Assay in HepG2 cells - 8 hour (AID 1224873); also: nearly all actives have a fitted effect of over 55% in size
Method in brief: (§2)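 HepG2 cells (600/well) mixed with RealTime-Glo MT reagent, settled 5 h at 37 C/5% CO2 before compound addition. Nonlytic NanoLuc luminescence from viable-cell prosubstrate reduction read repeatedly during 40 h treatment at 37 C.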

[11] = A CellTox Green Cytotoxicity Assay to monitor cytotoxicity in HEK293 cells - 40 hour (AID 1224871); also: nearly all actives have a fitted effect of over 45% in size
Method in brief: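 Tox21 screen in HEK293: membrane-impermeant cyanine dye fluoresces on binding dead-cell DNA; compound pinned 5 h post-seeding, plates held at 37 C, signal read repeatedly through 40 h.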

[12] = qHTS assay to identify small molecule agonists of the hypoxia (HIF-1) signaling pathway - cell viability counter screen (AID 1224844; calls by dose curve; also: nearly all actives have a fitted effect of over 50% in size)
Method in brief: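 HRE-bla ME-180; 0.5% dFBS; cpd 17 h, 37C, 5% CO2; CellTiter-Glo lum., 30 min RT, post-FRET read, same wells.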

[13] = qHTS RealTime-Glo MT Cell Viability Assay in HEK293 cells - 16 hour (AID 1224872); also: nearly all actives have a fitted effect of over 50% in size
Method in brief: as §1

[14] = qHTS RealTime-Glo MT Cell Viability Assay in HepG2 cells - 40 hour (AID 1224870); also: nearly all actives have a fitted effect of over 50% in size
Method in brief: as §2

[15] = activation: at 92.4 µM (top of the series) unless noted
Potency is read from the fitted curve at half-maximal effect; tags tell the direction and shape of the fitted curve or compound fluorescence and quenching.

UniProt P16473, sequence (P16473 whole entry, looked up): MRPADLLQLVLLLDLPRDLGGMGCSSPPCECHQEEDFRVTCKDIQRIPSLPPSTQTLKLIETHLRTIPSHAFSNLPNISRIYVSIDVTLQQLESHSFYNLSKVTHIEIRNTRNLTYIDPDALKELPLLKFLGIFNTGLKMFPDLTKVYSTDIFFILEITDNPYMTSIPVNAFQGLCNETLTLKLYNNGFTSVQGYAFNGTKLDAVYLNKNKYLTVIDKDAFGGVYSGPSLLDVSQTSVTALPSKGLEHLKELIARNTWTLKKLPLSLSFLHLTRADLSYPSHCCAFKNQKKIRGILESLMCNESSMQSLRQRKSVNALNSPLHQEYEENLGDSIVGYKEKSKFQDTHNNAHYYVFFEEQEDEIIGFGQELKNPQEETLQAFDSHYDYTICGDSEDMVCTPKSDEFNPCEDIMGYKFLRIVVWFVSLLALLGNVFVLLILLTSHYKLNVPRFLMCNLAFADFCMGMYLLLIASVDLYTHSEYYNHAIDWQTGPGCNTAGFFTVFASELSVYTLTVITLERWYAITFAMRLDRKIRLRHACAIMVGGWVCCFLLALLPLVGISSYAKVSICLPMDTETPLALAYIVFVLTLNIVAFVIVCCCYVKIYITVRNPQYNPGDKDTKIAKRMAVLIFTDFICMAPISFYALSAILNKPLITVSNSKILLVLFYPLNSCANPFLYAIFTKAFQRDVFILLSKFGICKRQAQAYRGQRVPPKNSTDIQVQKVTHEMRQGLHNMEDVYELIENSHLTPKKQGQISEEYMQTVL

With `NNC(=O)c1ccccc1` the Potency [1, 15] was “inactive”.
With `CNC(=O)N(C)c1nnc(C(C)(C)C)s1` the Potency [1, 15] was inconclusive: 77 µM [inhibitor, single point].
With `Cc1cccc(N)c1N` the Potency [2] was active: 15.4 µM and the Potency [3] was inconclusive: 109 µM [cytotoxic, partial curve, poor fit].
With `CCOC(=O)COc1cc(-c2nn(C)c(OC(F)F)c2Cl)c(F)cc1Cl` the Potency [1, 15] was inconclusive: 10.9 µM [inhibitor, full curve].
For `Cc1ccc(N)c(N)c1`, the activation [1, 15] was inconclusive: 19.1%, the activation ([1]; at 92.4 µM (top of the series)) was inactive: 2.34% and the Potency [4] was inconclusive: 101 µM [activator]. For the same compound, the Potency [3] was inconclusive: 50.5 µM [rising, single point], the Potency [5] was inconclusive: 17.4 µM [rising, partial curve] and inconclusive: 38.9 µM [rising, partial curve] and the Potency [6] was inconclusive: 17.4 µM [rising, partial curve] and inconclusive: 38.9 µM [rising, partial curve].
For `CC1(C)[C@H](C(=O)O[C@H](C#N)c2cccc(Oc3ccccc3)c2)[C@@H]1C=C(Br)Br`, the Potency [7] was inconclusive: 1.6 µM [falling, single point], the Potency [8] was inconclusive: 57.2 µM and inconclusive: 54.9 µM and the Potency [9] was inconclusive: 63.6 µM [inhibitor, partial curve] and inconclusive: 30.6 µM [inhibitor, partial curve]. For the same compound, the Potency [10] was inconclusive: 38.9 µM [falling, partial curve].
For `C[C@H]1CC[C@@H]2[C@@H](C)[C@H]3[C@H](C[C@H]4[C@@H]5CC=C6CC(O[C@@H]7O[C@H](CO)[C@H](O)[C@H](O[C@@H]8O[C@H](CO)[C@@H](O)[C@H](O)[C@H]8O)[C@H]7O[C@H]7O[C@@H](C)[C@H](O)[C@@H](O)[C@H]7O)CC[C@]6(C)[C@H]5CC[C@]34C)N2C1` (stereo partly drawn), the Potency [2] was inconclusive: 31.6 µM [activator, partial curve], the activation [1, 15] was inconclusive: 18.4% and the Potency [3] was active: 32.9 µM. The Potency [9] was inconclusive: 25.1 µM [inhibitor, partial curve, poor fit], the Potency [11] was active: 7.14 µM and the Potency [10] was active: 45.1 µM.
With `Clc1ccc(C(c2ccc(Cl)cc2)C(Cl)(Cl)Cl)cc1` the Potency [1, 15] was inconclusive: 27.5 µM [inhibitor, partial curve] and inconclusive: 5.45 µM [inhibitor, full curve], the activation [1, 15] was inconclusive: -21% [at 42.5 µM] and the Potency [12] was inconclusive: 54.9 µM [cytotoxic, single point] and inconclusive: 26.8 µM [cytotoxic, single point]. For the same compound, the Potency [3] was active: 101 µM and active: 89.8 µM and inconclusive: 3.91 µM [cytotoxic, full curve], the Potency [9] was inconclusive: 26.6 µM [inhibitor, partial curve, poor fit] and the Potency [5] was active: 39.2 µM and inconclusive: 49 µM [cytotoxic, single point] and inconclusive: 26.8 µM [cytotoxic, single point]. The Potency [11] was inconclusive: 27.5 µM [activator, partial curve, poor fit], the Potency [13] was active: 39.2 µM and inconclusive: 43.6 µM [cytotoxic, partial curve] and inconclusive: 26.8 µM [cytotoxic, single point] and the Potency [10] was inconclusive: 49.3 µM [falling, partial curve]. For the same compound, the Potency [6] was inconclusive: 49 µM [cytotoxic, single point] and inconclusive: 26.8 µM [cytotoxic, single point].
For `ClC1=C(Cl)[C@]2(Cl)[C@@H]3[C@H]4C[C@H]([C@@H]5O[C@H]45)[C@@H]3[C@@]1(Cl)C2(Cl)Cl`, the Potency [7] was inconclusive: 61.1 µM [falling, partial curve, poor fit], the Potency [1, 15] was active: 4.32 µM and the Potency [9] was inconclusive: 30.6 µM [inhibitor, partial curve]. The Potency [14] was “inactive” and the Potency [11] was “inactive”.
With `CN1CSC(=S)N(C)C1` the activation [1, 15] was inconclusive: 31.4%, the Potency [12] was inconclusive: 4.34 µM [cytotoxic, full curve, poor fit] and inconclusive: 7.74 µM [cytotoxic, full curve, poor fit] and the Potency [4] was active: 4.48 µM. For the same compound, the Potency [8] was inconclusive: 4.87 µM [falling, full curve] and inconclusive: 10.9 µM [falling, full curve], the Potency [3] was inconclusive: 44.9 µM [rising, full curve] and the Potency [14] was inconclusive: 48.7 µM [falling, partial curve, poor fit]. For the same compound, the Potency [13] was active: 15.4 µM and inconclusive: 24.5 µM [cytotoxic, full curve, poor fit], the Potency [10] was inconclusive: 12.3 µM [falling, partial curve] and the Potency [6] was active: 13.7 µM and active: 21.8 µM.
For `Oc1ccc(C2(c3ccc(O)cc3)c3ccccc3-c3ccccc32)cc1`, the Potency [7] was inconclusive: 68.6 µM [falling, single point], the Potency [12] was inconclusive: 6.92 µM [cytotoxic, partial curve, poor fit] and the Potency [8] was inconclusive: 54.9 µM. For the same compound, the Potency [9] was inconclusive: 68.6 µM [inhibitor, single point], the Potency [14] was inconclusive: 54.9 µM [falling, single point] and the Potency [13] was active: 49 µM. The Potency [10] was active: 49 µM and the Potency [6] was inconclusive: 54.9 µM [cytotoxic, partial curve, poor fit].
